From the supplement of paper PMC11417369
The other results are listed elsewhere or left out.

These sequences were tested on PfHDP1 homeodomain (GST-tagged) (assay: gcPBM binding intensity (ln(normalized median fluorescence intensity)); higher = stronger DNA binding).
In short: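 Using an Agilent 4 × 180k array, primer-extended double-stranded 36-bp intergenic genomic probes and negative controls were exposed for 1 h to GST-fused P. falciparum DNA-binding domains expressed in E. coli. Binding was carried out in 1× PBS with 1% milk, 0.2 mg/ml BSA, 0.5% salmon testes DNA and 0.03% Triton X-100, and protein was detected with Alexa488 anti-GST antibody and a 488 nm scan. Binding intensity is the highest Masliner-normalised natural-log median intensity across replicate spots of either probe orientation.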

Sequence	gcPBM binding intensity (ln)
ATCTATATTTTTATAACACACAATGATGTACATTAC [CACACA_site6633]	6.74
TAGAATAATCTATAAACACACAAACCCAACAAAAGA [CACACA_site6132]	7.14
TGAAAATATTTTATATGTACATATATTATCAATACA [XGTACX_site92]	6.64
TTATTTATTTTTTCATGTACTTAAATATATTAATGT [XGTACX_site5804]	6.66
ATATATAAATTTAATACACACCCAAAAAAAAAAAAA [CACACA_site7719]	6.57
GAATGAATACGTTTTACACACTTGAATATAATTTCA [CACACA_site989]	6.36
AAAATTATAAAATGGGCACACATGAAGATTGTAGTA [CACACA_site2226]	6.67
TAAATATATAAACACACACACATTAATACAGATATT [CACACA_site5851]	6.78
AATATATAATTAATTGCACACCTTGTCACGCCAAAA [CACACA_site1174]	8.98
TATTAATACAGACACACACACACACTAATTAAAATA [CACACA_site7967]	6.97
ATTTACCCTTGCCATGCACACTTTTTTATAGAAAAT [CACACA_site5857]	8.72
AAAGTATAACGGATACCATTTATGTGATTATTTTGT [XGTACX_negctrl_site188]	6.1
TATATATTTTTATGCACACACAAAGAAAATTTTCCT [CACACA_site2863]	10.8
AAAAAAAATTAAAATAAAATATAAATATAAAATATA [GTGCAC_negctrl_site714]	6.2
AGCTATAATAAATATACACACATATATAAATATGTA [CACACA_site6583]	6.42
ATATATATATAATAAGTGCAAAAATAATGACCTATA	9.42
AAATATATATAAGCGTGTACACATTCTGAGTGTTGT [XGTACX_site1088]	7.09
TATCGTTTTATTCGGTTGCACCAAAAAAATAAAATA [GTGCAC_site9408]	9.05
ATAATAAAAATAAAATGTACATACATAAATATATAT [XGTACX_site6228]	6.71
ATACTTTTAATATGCACATGCAAATATGAAATATCG [TGCATGCA_site603]	10.1
TTTGGCTAGTCAAGTTGTACAAAAAAAAAAAAAAAA [XGTACX_site8382]	6.18
TACCAAAAGAAACACACACACAAAATATATAAATAT [CACACA_site1869]	6.78

Sequence	gcPBM binding intensity (ln)
TCCCATATATATATATATATATATATATATAATAAT [TGCATGCA_negctrl_site41]	7.65
TGTATGTATTTGTGTAGTACGCATAAGTAATAAAAC [XGTACX_site6704]	7.17
AATTTATATTAAAATTGTACATTTCTTCTATAATAC [XGTACX_site8639]	6.29
AAATAAAAAAAATAAAAGCAATCATAATAAAAATCT [CACACA_negctrl_site161]	6.34
AATATATTTAATGAGTGTACATTATTTATTATTATT [XGTACX_site6889]	6.3
ATTTTTTATGAAAACATAAAAAAATGAGATAACCAT [CACACA_negctrl_site894]	6.46
AAAAAAAAAAGACACACACACACACGGACACATACA [CACACA_site7363]	6.92
CTATCAAATAATAGCAAACACACAAAAAATAAAAAA [CACACA_site4147]	6.57
AAAAAAAAAAAAAAATCACACATTGGTTAAATATTA [CACACA_site5344]	6.37
ATTCATACATGCACACGTACATATTTAAATATAAAA [XGTACX_site8388]	8.36
TCATGTTTTTAATATTGTACTCTCATTTTATATATC [XGTACX_site8412]	6.41
ATATTTACTCACGTCTTGCACTGAGCAAGCATTATA	8.75
AGCTATTAATTTATTACATGCAAGATTAAAAGACTA [TGCATGCA_site281]	6.14
TTTTGATTTTTTTATTGTACCCATAAACATATAATT [XGTACX_site5202]	6.67
TACAAACAATTAAACAAACACACATATACATGTATA [CACACA_site2061]	6.46
TATTTTTGAAGTTGCACACACAAAAATAAAAAGTAT [CACACA_site418]	9.26
TATATATTGCCCTTCACACACACACCCATATATATA [CACACA_site2493]	7.45
CACACCACCAACAAAAGTACATACATATATATATAT [XGTACX_site5781]	9.02
ATATATTATAAATGTAGTACCGTTACATAGTCATAG [XGTACX_site390]	6.77
ATCAAGCACGAACACACACACACACGCACGCCCACA [CACACA_site6308]	7.4
ACTACGAGTCGTAGAGTGCAGTCTGGAGAAAAGTAC [GTGCAC_site9769]	7.3
ATTTTTTTTTTTTGTACATACCACATATACAAAACA [CACACA_negctrl_site1240]	6.94

Sequence	gcPBM binding intensity (ln)
TTTTTTTTTTTCTCCATACACACTTGATAAAACTTT [CACACA_site615]	6.57
TAATTGATTCTTCACCGTACTCACACATATATATAT [XGTACX_site6530]	8.53
TATTTATACATACGTACACACAAATATTAAAATATA [CACACA_site7004]	6.68
TGTAAGTATTCTTGAGGTACACATATAAATATAGTA [XGTACX_site3207]	6.18
AATATTATATAATAAAGTACATATATATTCATATTT [XGTACX_site7204]	6.34
ATATATATATATAGGAGTACATGAAATACTTAAAAA [XGTACX_site8851]	8.93
GTGTGAAGATATAAATGCATTTTTTTATACATTTTC [CACACA_negctrl_site117]	6.51
AAAAAAGAAATAATCAAATAAATAAAAAAGATGAAT [XGTACX_negctrl_site607]	6.78
AAATATTAAATGGAAAACAAATATATATATCTTAAT [XGTACX_negctrl_site383]	6.47
ATATATTGAACCTATGCATGTAAAATATATGTAATA [TGCATGCA_site644]	6.22
TGTGTGGATATATGTATGCACTACCCTTTGGGTCAT [GTGCAC_site9506]	7
AAAAAAAAAAAATACACACACACATATAAATATGTA [CACACA_site6900]	6.59
GTTTATATATGCTTATAATTTTCAATTGTTTTACAA [TGCATGCA_negctrl_site384]	6.63
TTTTATGTTTTTTTTATAAATATTAAAATTCTATAT [CACACA_negctrl_site1477]	6.15
ATATATATATATAATTGTACATTTTTAACCTTAACA [XGTACX_site7910]	8.98
AATGTTAAAAATGAAAGTACATGGAATTTATTATTT [XGTACX_site4095]	5.94
ATATTGTTATATGTTTGTACATATTTTTTATATTTT [XGTACX_site6834]	6.56
TATAAATACATCCTATACTTCTCTTTTACAGTTTTA [CACACA_negctrl_site1283]	6.51
TGATTCAATTTATGCACACTAAAAATTAATTATATT [CACACA_site271]	10.1
TTTTTTTTTTATACATGTACTTAAAAGTAGCACCTT [XGTACX_site1855]	6.52
GACATTAATTATTTGACACACGACTGGGTGGTGATT [CACACA_site306]	6.15
TTTGTAAAAGGTCATACACACATATTCAAAAGAAGT [CACACA_site2947]	6.85

Sequence	gcPBM binding intensity (ln)
ATTATATATACAACAAGTACAAAAGAAAAATATTAT [XGTACX_site2914]	6.92
TATATATATACATAATGTACAAGAATTTGTATTGAA [XGTACX_site627]	7.63
TAAAAATAAAGAAAATGTACATAAATAAAAATAAAG [XGTACX_site2279]	6.83
ACAGGAGTATAACCTCGTACAAAATATATTTACCAT [XGTACX_site5805]	6.79
TCTTTAAAAAAAAAAAAAAAAAATTCCAAATAAATA [TGCATGCA_negctrl_site538]	5.88
CCTAGAAAAGCATATACACACGCGCAAAATAAAATT [CACACA_site4902]	7.17
TACACACATTACAGATGTACATAAAATTAAAAAAAT [XGTACX_site1804]	6.82
TCAAAAAATATATTTGCACACTCAAAAAAAAAAAAA [CACACA_site860]	10.2
TATATATATATAAATACATGCATATAATTAATCCAT [TGCATGCA_site400]	8.75
ATTCCAAAAAAATCAAGTACTAATTTATTATATTAC [XGTACX_site3920]	6.2
ATTTTTTTTTTTTTTTTAAGACAAACTCTTAATTTA [CACACA_negctrl_site1389]	6.21
TATTTTTTTAAGTGCAGTACACTTAATTTCCCCCAA [XGTACX_site7328]	7.67
AAAAAAAAAAAAAAAAAAATATATTATATATATATA [XGTACX_negctrl_site467]	8.89
TTTTTCACATTTCAGTGTACATTTTAATCATATATA [XGTACX_site915]	6.57
CGACAAAAATTTTACAGTACAGTATAAACCTTTTTA [XGTACX_site290]	6.1
CTTTTATATGTCTAATGTACGGGCAATATAAATTTG [XGTACX_site8323]	6.21
TATATAAATTTAATAACACACATATAAAAATGAATT [CACACA_site2366]	6.77
AAAAAGCAGGATTATACACACAAATATATATATGTT [CACACA_site1077]	6.61
ATATGTTTACGTAAATGTACACGTCAGTATATTTCT [XGTACX_site8199]	6.7
ATATATATATAACATTGTACACACAAAGAAATAATA [XGTACX_site6440]	8.3
AACTTGTATATATACACACACACACTATCTTTTTTT [CACACA_site8601]	7.19
TTTTATAATAAGTATGTAAAAATTATATATATATAT [CACACA_negctrl_site711]	8.98
